Experimental data from a collection of fitness landscapes (doi:10.1016/j.celrep.2020.107928).
The full ranking holds about 81,000 sequences; the median of “one-hybrid fitness for binding parS DNA” is about -0.17, and the highest 2% start at about 0.51. The list shows a part of the results.

B1: Caulobacter ParB omega fusion; a variant is named by its letters at X, in order, B8GW30 (parent)
chain: MESVVVGEPGMSEGRRGLGRGLSALLGEVDAAPAQAPGEQLGGSREAPIEILQRNPDQPRRTFREEDLEDLSNSIREKGVLQPILVRPSPDTAGEYQIVAGERAWRAAQRAGLKTVPIMVRELDDLAVLEIGIIENVQRADLNVLEEALSYKVLMEKFERTQENIAQTIGKSXSHVANXMRLLXLPDEVQSYLVSGELTAXHARAIAAAADPVALAKQIIEGGLSVRETEALARKAPNLSAGKSKGGRPPRVKDTDTQALESDLSSVLGLDVSIDHRGSTGTLTITYATLEQLDDLCNRLTRGI

Variants of: B1
Assay: one-hybrid fitness for binding parS DNA (scaled: cognate 1, non-cognate 0); higher = stronger binding
Conditions: with parS DNA site
Procedure, shortened: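 On M9-minus-histidine containing 0.1 mM IPTG and 5 mM 3-AT, E. coli USO cells with a HIS3 reporter, site 19 bp from the promoter, grew 48 hours at 37°C to select Caulobacter ParB libraries randomised at four specificity codons. Plasmids from before and after were Illumina-sequenced, with three replicate libraries pooled and variants under 10 reads left out. Fitness is the log change in variant-to-wild-type read ratio, rescaled against cognate and non-cognate.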

Variant | one-hybrid fitness for binding parS DNA
GAFR | ≤ 0.2
RMQF | ≤ 0.2
SDER | ≤ 0.2
ILSM | ≤ 0.2
LAKM | ≤ 0.2
TPKS | ≤ 0.2
PCRK | ≤ 0.2
LEVD | ≤ 0.2
DYTY | ≤ 0.2
QACE | ≤ 0.2
LVMT | ≤ 0.2
TACD | ≤ 0.2
HWNF | ≤ 0.2
SCFG | ≤ 0.2
FSKV | ≤ 0.2
FGQG | ≤ 0.2
NTPT | ≤ 0.2
TTVE | ≤ 0.2
WTSW | ≤ 0.2
SHSP | ≤ 0.2
ICLG | ≤ 0.2
ESNC | ≤ 0.2
AQWG | ≤ 0.2
SYEE | ≤ 0.2
DCVR | ≤ 0.2

Variant | one-hybrid fitness for binding parS DNA
AKEL | ≤ 0.2
TAIS | ≤ 0.2
YKNC | ≤ 0.2
NSAD | ≤ 0.2
VEMS | ≤ 0.2
ACRG | ≤ 0.2
MNRY | ≤ 0.2
RLGT | 0.925
YYHL | ≤ 0.2
QYDL | ≤ 0.2
GRTV | ≤ 0.2
RTGT | 0.912
ASEM | ≤ 0.2
AHFR | ≤ 0.2
NLNN | ≤ 0.2
GVQN | 0.23
YNQC | ≤ 0.2
TVDN | ≤ 0.2
VTYI | ≤ 0.2
PDRM | ≤ 0.2
QARC | ≤ 0.2
SINI | ≤ 0.2
QYLI | ≤ 0.2
RGCP | ≤ 0.2
QKTG | ≤ 0.2

Variant | one-hybrid fitness for binding parS DNA
PVKE | ≤ 0.2
IPSF | ≤ 0.2
NTPM | ≤ 0.2
PSGT | ≤ 0.2
QEYI | ≤ 0.2
SVMT | ≤ 0.2
LQHT | ≤ 0.2
FQMS | ≤ 0.2
RKFM | 0.319
PAET | ≤ 0.2
CKIL | ≤ 0.2
FAHS | ≤ 0.2
FVSS | ≤ 0.2
YTYW | ≤ 0.2
PEFG | ≤ 0.2
ENGW | ≤ 0.2
MYPC | ≤ 0.2
NFSL | ≤ 0.2
CAAF | ≤ 0.2
LFKK | ≤ 0.2
TTWR | ≤ 0.2
IQYR | ≤ 0.2
LEMG | ≤ 0.2
TFQV | ≤ 0.2
RNMK | ≤ 0.2

Variant | one-hybrid fitness for binding parS DNA
PMNC | ≤ 0.2
YELR | ≤ 0.2
GVQS | ≤ 0.2
WVTF | ≤ 0.2
RGFF | ≤ 0.2
PIDV | ≤ 0.2
SAGV | ≤ 0.2
RLMI | ≤ 0.2
VAYC | ≤ 0.2
DRHT | ≤ 0.2
NASW | ≤ 0.2
LYNI | ≤ 0.2
HHGV | ≤ 0.2
VIDW | ≤ 0.2
QVDP | ≤ 0.2
YCFG | ≤ 0.2
RCVP | ≤ 0.2
RQQY | 0.45
QWLV | ≤ 0.2
TMKM | ≤ 0.2
LTDA | ≤ 0.2
GIHL | ≤ 0.2
LKCF | ≤ 0.2
NLIH | ≤ 0.2
PIHH | ≤ 0.2

Variant | one-hybrid fitness for binding parS DNA
RGVW | ≤ 0.2
KRFR | ≤ 0.2
IALT | ≤ 0.2
LNIN | ≤ 0.2
SLCF | ≤ 0.2
YHVV | ≤ 0.2
RVLW | 0.288
RWTC | 0.79
YKGC | ≤ 0.2
QITW | ≤ 0.2
RLYM | 0.364
HEMM | ≤ 0.2
GFYV | ≤ 0.2
KHTG | ≤ 0.2
NGYG | ≤ 0.2
QLSW | ≤ 0.2
ERTS | ≤ 0.2
NQGS | ≤ 0.2
DHCA | ≤ 0.2
QGTT | ≤ 0.2
KDSR | ≤ 0.2
ALLS | ≤ 0.2
HQNS | ≤ 0.2
VDWS | ≤ 0.2
TFWL | ≤ 0.2

Variant | one-hybrid fitness for binding parS DNA
TDGR | ≤ 0.2
FTRD | ≤ 0.2
PRTM | ≤ 0.2
AYVR | ≤ 0.2
RVSC | 0.977
RCVQ | 0.223
SCEQ | ≤ 0.2
KTYS | ≤ 0.2
RSCA | 0.579
RRFP | ≤ 0.2
AGTR | ≤ 0.2
QNPV | ≤ 0.2
PPSY | ≤ 0.2
HWAT | ≤ 0.2
HVEA | ≤ 0.2
GGMA | ≤ 0.2
PVYC | ≤ 0.2
HPHC | ≤ 0.2
EKPV | ≤ 0.2
PLPQ | ≤ 0.2
LPGE | ≤ 0.2
RAAQ | ≤ 0.2
QHMY | ≤ 0.2
QFVA | ≤ 0.2
RRGN | 0.777

Variant | one-hybrid fitness for binding parS DNA
HDDQ | ≤ 0.2
SESV | ≤ 0.2
QMLQ | ≤ 0.2
DTKV | ≤ 0.2
HEYS | ≤ 0.2
RGRG | 0.874
HPAR | ≤ 0.2
PMAT | ≤ 0.2
NLCN | ≤ 0.2
TLMS | ≤ 0.2
LPHS | ≤ 0.2
LHWK | ≤ 0.2
ALVF | ≤ 0.2
SVMG | ≤ 0.2
PQNK | ≤ 0.2
AQHK | ≤ 0.2
TKYG | ≤ 0.2
RYMY | 0.448
RGVK | ≤ 0.2
VPHA | ≤ 0.2
LCQY | ≤ 0.2
LAEV | ≤ 0.2
ADTM | ≤ 0.2
DSDE | ≤ 0.2
VLYD | ≤ 0.2

Variant | one-hybrid fitness for binding parS DNA
YMLA | ≤ 0.2
HHSG | ≤ 0.2
LSGV | ≤ 0.2
SHPC | ≤ 0.2
LGCV | ≤ 0.2
YTDA | ≤ 0.2
SWPV | ≤ 0.2
HPNS | ≤ 0.2
NKQF | ≤ 0.2
SARQ | 0.205
MIER | ≤ 0.2
RNPN | ≤ 0.2
KNIF | ≤ 0.2
NSKS | ≤ 0.2
HFGC | ≤ 0.2
MNGV | ≤ 0.2
CRLY | ≤ 0.2
ALHL | ≤ 0.2
SRKH | ≤ 0.2
TIIT | ≤ 0.2
